# Laboratory results taken from PubChem BioAssay AID493208 (National Center for Advancing Translational Sciences (NCATS), 2011).
# Among all 44,000 compounds or so, about 340 (0.77%) were called active. Not shown: some 5% with an inconclusive outcome. Calls follow the shape of the dose curve; as a rule, active = well fitted inhibition curve with a large enough effect; inconclusive = small, poorly fitted or top-dose-only effect; inactive = flat fitted curve, though single readings scatter. This is one part of the list.
# Assay: Acumen qHTS Assay for Inhibitors of the mTORC1 Signaling Pathway in MEF (Tsc2-/-, p53-/-) Cells: Sytravon;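 also: plate controls were DMSO for no effect and rapamycin for full effect; nearly all actives have a fitted effect of over 50% in size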
# Conditions: phospho-rpS6 immunofluorescence/PI, 24 h; series mostly up to 38.3 µM; activity change, negative = inhibition: at the top concentration
# Method in brief: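 Readout is phospho-S6 Alexa 488 signal normalized to PI per well, reported as % active cells with thresholds set from rapamycin (7.5 nM) and DMSO controls. Cells: Tsc2-/-, p53-/- MEFs, 24 hrs compound at 37 C; PI cell number serves as viability.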
row,Structure (SMILES),"activity change, negative = inhibition"
1,CCOC(=O)c1noc2ncnc(N(CCC(=O)OC)c3ccccc3)c12,inactive: -3.14%
2,CCOC(=O)c1noc2ncnc(Nc3ccc(C)c(F)c3)c12,inactive: -3.89%
3,Cc1ccc(-c2cc(N)n3nc(-c4ccc(C)cc4)cc3n2)cc1,inactive: 2.67%
4,COc1ccc(OC)c(C2CC(=O)c3c([nH]c(C(=O)OC4CCC(C)CC4)c3C)C2)c1 (centres undefined),inactive: -9.43%
5,CN1CCN(CCCNC(=O)Cn2c(-c3cccs3)cc3ccccc32)CC1,inactive: -8.18%
6,Cc1ccc2c(c1)sc1nc(=O)n(-c3ccc(Cl)cc3)c(=O)n12,inactive: 4.21%
7,COc1ccc(N2CCN(CCCNC(=O)C3COc4ccc(OC)cc4C3)CC2)cc1 (centres undefined),inactive: -1.65%
8,COc1ccc2c(CNCc3ccc(Cl)cc3)c(C(=O)O)n(Cc3ccccc3C)c2c1,inactive: 2.21%
9,CCc1cccc2c(-c3ccccc3)nc(SCC(=O)Nc3ccccc3)nc12,inactive: -0.847%
10,Cc1cccc(Nc2nnc(-n3nc(C)cc3C)c3ccccc23)c1,inactive: -0.0597%
11,O=C(Cn1cc(SCc2ccc(C(F)(F)F)cc2)c2ccccc21)N1CCCCC1,inactive: -18.8%
12,CC(CC(=O)NCc1ccc(Cl)cc1)CC1=NS(=O)(=O)c2ccccc2N1 (centres undefined),inactive: -0.706%
13,COc1cc(NC(=O)c2cc(-c3ccc4c(c3)OCO4)on2)cc(OC)c1OC,inactive: -18.1%
14,COc1ccc(-c2cc(C)no2)cc1S(=O)(=O)NCc1ccc(OC(C)C)cc1,inactive: 1.41%
15,CC(=O)c1ccc(N2CCN(c3nc4c(S(=O)(=O)c5ccccc5)nnn4c4ccc(Cl)cc34)CC2)cc1,inactive: 5.27%
16,COc1ccc(S(=O)(=O)c2cn(C)c3cc(N4CCCCC4)c(F)cc3c2=O)cc1,inactive: 2.79%
17,COc1ccc(NC(=O)c2cnn(-c3ccc(C)cc3)c2-n2cccc2)cc1Cl,inactive: -1.43%
18,Cc1c(-c2nsc(NC(=O)c3ccc(Cl)cc3)n2)nnn1-c1ccc(C(C)C)cc1,inactive: -19.6%
19,Cc1cc(C)cc(NC(=O)CSc2nccn2-c2ccccc2)c1,inactive: -4.56%
20,O=C(NC1CC(=O)N(c2ccccc2)C1)C1CCCCC1 (centres undefined),inactive: -0.299%
21,Cc1cc(Br)ccc1NC(=O)c1cc2c(=O)n(C)c3cc(Cl)ccc3c2s1,inactive: -7.25%
22,Cc1cccc2nc(-c3cccnc3)c(Nc3ccc(C(C)C)cc3)n12,inactive: -14%
23,COc1ccc(NC(=O)C2=C(C)Nc3nc(SCc4ccccc4C)nn3C2c2ccc(Br)cc2)cc1 (centres undefined),inactive: -0.0145%
24,Cc1cccc(NC(=O)C2CCN(S(=O)(=O)c3cccc4nsnc34)CC2)c1C,inactive: 1.04%
25,COc1ccc(S(=O)(=O)N2CCC(c3ccncc3)CC2)cc1Cl,inactive: -12.2%

row,Structure (SMILES),"activity change, negative = inhibition"
1,CN(C(=O)c1cc(-c2ccccc2O)on1)c1ccccc1,inactive: -14.5%
2,CCCCOc1c(Cl)cc(C(=O)N(Cc2ccc(C)o2)C2CCS(=O)(=O)C2)cc1Cl (centres undefined),inactive: -4.31%
3,Cc1cc(C)c2oc(C(=O)N(Cc3ccc(F)cc3)C3CCS(=O)(=O)C3)cc(=O)c2c1 (centres undefined),inactive: -1.97%
4,CSc1ccc(CCNc2ncnc3onc(C)c23)cc1,inactive: 0.931%
5,CCOC(=O)c1c(C)oc2ccc(N(C(=O)Oc3ccccc3)S(=O)(=O)c3ccccc3)cc12,inactive: 3.22%
6,CCOc1ccc(/C=C(\C#N)c2nc(-c3cc4ccccc4oc3=O)cs2)c(OCC)c1,inactive: -3.38%
7,CCN1CCN(C(c2ccc(OC)cc2)c2c(O)cc(C)n(CCOC)c2=O)CC1 (centres undefined),inactive: 2.43%
8,COc1ccc(C(CNC(=O)COc2ccc(C)cc2)N2CCCCC2)cc1 (centres undefined),inactive: -0.708%
9,CN(C(=O)Cn1c(=O)n(CCCS(=O)(=O)C2CCCCC2)c(=O)c2ccccc21)c1ccccc1,inactive: -2.28%
10,COc1ccc2c(CNCc3ccc(C)o3)c(C(=O)O)n(Cc3ccccc3)c2c1,inactive: -3.92%
11,O=C(Cn1c(=O)oc2ccccc21)NCc1cccc(Cl)c1,inactive: -6.27%
12,CCOc1cc(-c2nc(-c3ccc(-c4ccc(C)cc4)nc3OC)no2)cc(OCC)c1OCC,inactive: 1.89%
13,COc1ccc(C2C=C(c3ccccc3)Nc3nc(NC(=O)c4ccc(C)cc4)nn32)cc1 (centres undefined),inactive: 3.92%
14,COc1ccc(Cl)cc1NC(=O)Cn1c2ncccc2c(=O)n1-c1ccc(C)c(C)c1,inactive: -6.34%
15,Cc1cccc(CCNC(=O)c2cc3ccccn3n2)c1,inactive: 11.2%
16,Cc1cc(C)cc(N(CC(=O)Nc2cccc(C)c2C)S(=O)(=O)c2c(C)[nH]c(=O)[nH]c2=O)c1,inactive: -8.43%
17,COC(=O)c1ccc(Cl)cc1NC(=O)N1CC(C)Oc2ccccc21 (centres undefined),inactive: -11.7%
18,Cc1ccc(-n2nc3c(=O)n(CC(=O)Nc4ccccc4F)nc(C)c3c2C)c(C)c1,inactive: 1.94%
19,CCOC(=O)c1ccc(NC(=O)c2cc3cc(C)ccc3n2C)cc1,inactive: -1.34%
20,Cc1cc(NS(=O)(=O)c2ccc(NC(=O)COc3ccc(Cl)cc3)cc2)nc(C)n1,inactive: -6.93%
21,Cc1ccc(NC(=O)Nc2nnc(N(C)Cc3ccccc3)s2)cc1,inactive: -12.1%
22,COc1ccccc1N1CCN(C(=O)Cn2ncc3c(=O)oc4ccccc4c32)CC1,inactive: -6.86%
23,Cc1cccc(N2CCN(S(=O)(=O)c3ccc4c(c3)CCCN4C(=O)C3CCC3)CC2)c1C,inactive: -10.5%
24,O=C(Nc1ccc(C(=O)OCc2cc(=O)n3nc(C4CC4)sc3n2)cc1)c1ccc(F)cc1,inactive: 2.26%
